Data on one molecule can be found in patent US5538946A, “Hirudin derivatives with delayed action” (Hoechst Aktiengesellschaft, priority 1988, dated 1996).

One may read the half-life as the time in which the quantity being followed falls by half.

Series [1] is described as follows: i.v. administration to Wistar rats, plasma concentration read off by thrombin inhibition (coagulation time) assay. Format: in vivo. The conditions noted are these: comparison experiment. Here is the method: Female and male Wistar rats with a body weight of about 300 g are anesthetized with ethylurethane (1.5 g/kg i.p.). 1000 AT-U/kg of a hirudin derivative or authentic `Leu-Thr-hirudin`, which has been dissolved in physiological saline, are administered i.v. to the rats. A catheter is implanted in the carotid of the animals for blood sampling. Blood is taken from the animals and treated with citrate for the determination of anti-thrombin activity. 0.1 ml of the blood treated in this way is mixed with 0.2 ml of Tris/HCl buffer (0.1 mol/1; pH 7.4) and preincubated at 37° C. After addition of 0.1 ml of a thrombin solution (10 NIH-U/ml) the coagulation time is determined using a Schnitger and Gross coagulometer. In parallel with the experiment a calibration plot is constructed using reference plasma, from which the particular plasma hirudin or plasma hirudin derivative concentration is read off.
To reduce the Schiff's base which has formed, 75 mg of NaBH4 are added to the 75 ml of incubated solution, and the solution is stirred at 4° C. for 40 minutes and subsequently dialyzed against water at 4° C. for 24 hours (membrane: Servapor Dialysis Tubing; diameter 10mm, from Serra Feinbiochemica GmbH Heidelberg). This is followed by gel filtration on ®Sephadex G-25 and lyophilization. […] This entails measurement of the inhibition of the thrombin-catalyzed cleavage of chromozyme TH. […]

For series [2] the following is noted: hirudin, literature value (Markwardt et al. Pharmazie 43 (1988) 202); cited from earlier work.

B1: hirudin: isohirudin ('Leu-Thr-hirudin') described in German Patent Application 3,805,5406, synthesized in yeast cells; comparison substance (protein, UniProt P01050 1-65, looked up, variant V1L V2T)
Hirudin variant-1: LTYTDCTESGQNLCLCEGSNVCGQGNKCILGSDGEKNQCVTGEGTPKPQSHNDGDFEEIPEEYLQ
modifications: recombinant, yeast-expressed
notes: comparison substance
In the case of B1, in series [1], the “dose needed for a detectable plasma concentration after 1 hour, times higher than dextran-hirudin” value is given as “approximately 10 times”. In addition, the half-life in series [2] is 1 to 2 h.
